Source: paper PMC4336329 (PLoS ONE, 2015)
In all, about 310,000 compounds went through this assay and about 2,200 (0.71%) showed an effect of 50% or more. The effect is printed as a negative number. This is one part of the list.

Target: human ether-à-go-go-related gene (hERG) potassium channel (human, UniProt Q12809)
Assay: primary screen, population patch clamp on CHO cells stably expressing hERG

Chain of human ether-à-go-go-related gene (hERG) potassium channel (Q12809 whole entry, looked up): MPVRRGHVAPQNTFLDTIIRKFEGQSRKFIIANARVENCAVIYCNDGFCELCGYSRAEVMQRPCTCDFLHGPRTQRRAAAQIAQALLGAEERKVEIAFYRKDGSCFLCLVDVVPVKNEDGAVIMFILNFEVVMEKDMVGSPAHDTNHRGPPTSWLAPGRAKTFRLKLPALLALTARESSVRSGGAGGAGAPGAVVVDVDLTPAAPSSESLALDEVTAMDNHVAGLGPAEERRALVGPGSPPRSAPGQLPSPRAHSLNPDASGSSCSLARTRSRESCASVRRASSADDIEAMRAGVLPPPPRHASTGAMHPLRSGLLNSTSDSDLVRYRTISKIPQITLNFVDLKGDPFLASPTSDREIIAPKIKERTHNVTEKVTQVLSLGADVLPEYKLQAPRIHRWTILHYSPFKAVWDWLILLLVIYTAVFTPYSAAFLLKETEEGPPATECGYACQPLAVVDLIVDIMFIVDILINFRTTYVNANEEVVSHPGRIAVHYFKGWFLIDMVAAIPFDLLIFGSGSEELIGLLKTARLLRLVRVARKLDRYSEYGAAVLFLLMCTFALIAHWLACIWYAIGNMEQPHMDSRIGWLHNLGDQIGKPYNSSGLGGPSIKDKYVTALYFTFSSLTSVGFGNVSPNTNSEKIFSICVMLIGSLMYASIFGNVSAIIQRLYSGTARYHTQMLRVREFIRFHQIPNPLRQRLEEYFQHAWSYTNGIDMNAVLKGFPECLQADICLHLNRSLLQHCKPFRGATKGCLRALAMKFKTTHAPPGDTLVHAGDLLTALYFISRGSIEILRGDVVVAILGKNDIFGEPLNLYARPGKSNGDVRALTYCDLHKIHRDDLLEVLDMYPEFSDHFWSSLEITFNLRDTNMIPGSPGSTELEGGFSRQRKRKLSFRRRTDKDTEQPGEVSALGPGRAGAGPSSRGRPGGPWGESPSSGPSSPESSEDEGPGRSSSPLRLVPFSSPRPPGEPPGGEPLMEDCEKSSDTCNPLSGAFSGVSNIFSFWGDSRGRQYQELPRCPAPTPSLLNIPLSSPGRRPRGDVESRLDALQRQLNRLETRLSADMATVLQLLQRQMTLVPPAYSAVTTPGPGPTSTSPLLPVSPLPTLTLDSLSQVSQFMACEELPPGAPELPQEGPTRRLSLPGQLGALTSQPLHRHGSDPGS

Row | Structure (SMILES) | hERG current change (%, negative = inhibition) at 1uM
1 | O=C(Cn1cnc2scc(-c3ccc(Cl)cc3)c2c1=O)N1CCOCC1 | 0.744%
2 | COc1ccc(Cn2c(SCc3ccc(C)cc3)nc3cc(OC)c(OC)cc3c2=N)cc1Cl | 17.2%
3 | COc1cccc(-n2nc(C(=O)N3CCC4(CC3)OCCO4)c3ccccc3c2=O)c1 | 4.52%
4 | COc1ccc(/C(C)=N/NC(=O)CNC(=O)c2ccco2)cc1 | 8.89%
5 | CN1/C(=C\C=C2/SC(=S)N(CC(=O)O)C2=O)C(C)(C)c2ccccc21 | 15.9%
6 | NS(=O)(=O)c1ccc(CNC(=O)C(c2ccccc2)c2ccccc2)cc1 | 12.6%
7 | COc1ccc(C2NC(=S)NC3=C2CCc2cc(OC)ccc23)cc1 (stereo not drawn) | 22.2%
8 | Cc1cc2occ(CC(=O)N(C)CC(=O)Nc3ccccc3Cl)c2cc1C | -0.789%
9 | CN1CCN(C(=O)c2ccccc2NC(=O)c2ccccc2Br)CC1 | -7.65%
10 | CCOc1ccc(N(C)S(=O)(=O)c2cc(-c3cc(C)no3)ccc2C)cc1 | 12.4%
11 | Cc1ccnc(SCc2cc(=O)c(OC(=O)c3cccs3)co2)n1 | 5.72%
12 | CC1CCN(S(=O)(=O)c2cccc(C(=O)NNC(=O)c3ccco3)c2)CC1 | 15.1%
13 | C=C1CCN(C(C(=O)OC)C(C)C)S(=O)(=O)c2ccc(F)cc21 (stereo not drawn) | 8.28%
14 | COc1ccc(/C=N/NC(=O)c2nc(-c3ccccc3)n(-c3ccccc3)n2)cc1 | 19.3%
15 | CCc1ccccc1NC(=S)N(Cc1ccc(OC)cc1)CC1CCC(C(=O)O)CC1 (stereo not drawn) | 8.22%
16 | CCOc1ccc(CN2CCN(C(=O)Cc3ccccc3)CC2)cc1.O=C(O)C(=O)O | 2.28%
17 | O=C(NCc1cccc(C(F)(F)F)c1)C1CC(c2cccc(F)c2)=NO1 (stereo not drawn) | 6.77%
18 | Cc1[nH]n(-c2ccccc2)c(=O)c1C(c1cccc([N+](=O)[O-])c1)c1c(C)[nH]n(-c2ccccc2)c1=O | 10.4%
19 | O=C1CC2(CCN(C(=O)c3ccc(F)cc3)CC2)Oc2ccccc21 | -42.2%
20 | CCCCC(=O)NC(=S)Nc1cc(C(=O)O)ccc1OC | 13.1%
21 | CC(=O)c1ccc(S(=O)(=O)Nc2ccc(C(=O)N(C)CC(=O)Nc3cccc(C)c3C)cc2)cc1 | 10.9%
22 | C=C(C)c1cccc(C(C)(C)NC(=O)Nc2cc(C)ccc2OC)c1 | 11.9%
23 | COC(=O)c1cc(S(=O)(=O)N2CCCCCC2)cn1C | 15.2%

Row | Structure (SMILES) | hERG current change (%, negative = inhibition) at 1uM
24 | CCCn1c(=O)n(N)c2ccccc21 | 7.11%
25 | O=C(c1cnc2sccn2c1=O)N1CCN(c2ccccc2Cl)CC1 | 8.86%
26 | O=C(NCCCNC(=O)NC1CCCCC1)NC1CCCCC1 | 15%
27 | COc1ccc2ccccc2c1CNCCc1ccccc1.Cl | 0.34%
28 | CCc1cc(/C(Cc2csc(C)n2)=N/O)c(O)cc1O | 10.9%
29 | N#Cc1cc2c(nc1SCC(=O)Nc1sc3c(c1C#N)CCC3)CCCCC2 | -0.858%
30 | Cc1ccc(C(=O)CC(C(=O)O)n2ccc(C)n2)cc1 (stereo not drawn) | 8.84%
31 | CC(=O)NC(Cc1cccc(C)c1)C(=O)NC1CCN(c2ncccc2[N+](=O)[O-])CC1 (stereo not drawn) | 9.08%
32 | CC(C)NC(=O)COc1coc(CN2CCN(C(=O)c3ccco3)CC2)cc1=O | 19.3%
33 | O=[N+]([O-])c1cccc(S(=O)(=O)N2CCN(c3ccccn3)CC2)c1 | 10.8%
34 | COc1ccccc1NC(=O)c1ccc(C)s1 | 15%
35 | Cc1n[nH]c(=O)nc1NC1CCCCC1 | 15.8%
36 | O=C(Nc1nc2ccccc2[nH]1)c1ccc([N+](=O)[O-])cc1 | 25.7%
37 | Cc1ccccc1N1CCN(C2CCCN(C(=O)COc3ccccc3)C2)CC1 (stereo not drawn) | -33.2%
38 | Fc1ccc(-c2csc(-c3ccncc3)n2)cc1 | 1.28%
39 | O=C(COC(=O)c1ccncc1)Nc1cc(Cl)c(Cl)cc1Cl | 3.01%
40 | CC(=O)O[C@H]1C2OC(=O)C(C)=C2[C@@H]2OC(=O)[C@]3(CCC4OC41C)OC23 (stereo partly drawn) | 16%
41 | CCn1c(=O)cc(OCC(=O)N2CCN(c3ccc(F)cc3)CC2)c2ccccc21 | -46.3%
42 | Cn1nccc1C(=O)NC1CC(C)(C)Cc2c1cnn2-c1ccc(F)cc1 (stereo not drawn) | -20%
43 | COc1ccc(-n2ncc3c(SCC(=O)N4CCN(c5ccccc5OC)CC4)ncnc32)cc1 | 4.13%
44 | Cc1sc(NC(=O)CSc2nnc(-c3ccc(F)cc3)o2)c(C#N)c1C | 10.5%
45 | Cc1ccc(CNc2ccc(Cl)cc2[N+](=O)[O-])cc1 | -1.51%
46 | COC(=O)c1sccc1NC(=O)c1ccc(C)o1 | 14.1%

Row | Structure (SMILES) | hERG current change (%, negative = inhibition) at 1uM
47 | CN(C)S(=O)(=O)NCC1CCCN(Cc2ccc(-c3ccccc3)cc2)C1 (stereo not drawn) | 7.29%
48 | O=C(/C=C/c1cccs1)Nc1nncs1 | -0.579%
49 | CCN1CCN(c2ccc(NC(=O)c3cccc(N4CCCC4=O)c3)cc2)CC1 | 13.3%
50 | Cc1ccc(-c2nc3ncccc3o2)cc1NC(=O)C(C)(C)C | 14.6%
51 | Cc1ccc(-c2noc(C3CCN(S(=O)(=O)c4ccc5c(c4)OCCO5)CC3)n2)o1 | 10.2%
52 | CCN1CCN(CCOCCOc2ccccc2)CC1.O=C(O)C(=O)O | 16.4%
53 | Cn1cnnc1SCC(=O)Nc1ccc(OC(F)F)cc1 | 9.26%
54 | O=C(C1CCC(CNc2c(N3CCOCC3)c(=O)c2=O)CC1)N1CCN(c2ccccc2)CC1 (stereo not drawn) | 24.8%
55 | CCC1Oc2ccccc2N(CC(=O)NCCCN2CCCCC2CC)C1=O (stereo not drawn) | 10.5%
56 | O=c1cc(NC2CCCCC2)[nH]c(=O)[nH]1 | 11.5%
57 | CCCn1ncc(CN2CCC(n3nccc3NC(=O)CCc3ccccc3)CC2)c1C | 3.15%
58 | O=C(Nc1nc2ccc(SC(F)F)cc2s1)c1ccc(NS(=O)(=O)c2ccc(F)c(F)c2)cc1 | 5.9%
59 | Cc1nc(NC(=O)C2CC2)sc1C(=O)N(C)C | 17.6%
60 | Cc1cccc(CN2CCN(c3ccccn3)CC2)c1 | -0.3%
61 | CS(=O)(=O)c1ccc2nc(NC(=O)Cc3ccccc3)sc2c1 | 12.5%
62 | Cc1ccc(NC(=O)c2cccc3c2C(=O)N(C2CCCCC2)C3)c(C)c1 | 17.2%
63 | O=c1c2c(nc3n1CCCCC3)sc1c(O)c(Br)ccc12 | -0.391%
64 | CC1CCCC(NC(=O)COC(=O)c2ccc(Cl)nc2)C1C (stereo not drawn) | 7.96%
65 | O=C(CNS(=O)(=O)c1ccccc1)OCc1cccc([N+](=O)[O-])c1 | 15.1%
66 | O=C(NCCc1ccccc1)C1CCC(CNS(=O)(=O)c2ccccc2)CC1 (stereo not drawn) | 15%
67 | Cc1ccc2nc(-c3ccc(NC(=O)CN(c4ccccc4C)S(C)(=O)=O)cc3)sc2c1 | -4.07%
68 | CN1CCN(C(=O)c2ccccc2[N+](=O)[O-])CC1 | 12.2%
69 | Clc1cccc(OCCCn2ccnc2)c1 | 13.5%

Row | Structure (SMILES) | hERG current change (%, negative = inhibition) at 1uM
70 | COc1ccc(S(=O)(=O)Nc2ccc(C)cc2)cc1OC | -14.9%
71 | Cc1cc(OCC(=O)NCC2CCC(C(=O)O)CC2)c2c(C)cc(=O)oc2c1 (stereo not drawn) | 6.61%
72 | COc1ccccc1C1=CC(=O)CCC1 | 12.5%
73 | CC(C)COP(=O)(c1ccc(N(C)C)cc1)C(O)c1ccccc1F (stereo not drawn) | -11.1%
74 | CC1(O)N(CCC(=O)Nc2cccc(F)c2)C(=O)OC12CCCCC2 (stereo not drawn) | 14.7%
75 | CCOc1ccc(N2Cc3ccccc3C2)cc1 | 9.33%
76 | CCC1CN(S(=O)(=O)c2ccc3c(c2)NC(=O)CC(=O)N3)c2cc(Cl)ccc2O1 (stereo not drawn) | 7.34%
77 | OCCNc1nc(Nc2ccccc2Oc2ccccc2)nc(N2CCCC2)n1 | 17.1%
78 | O=C(CN1C(=O)C2CC=CCC2C1=O)Nc1nnc(SCc2ccc(Cl)cc2)s1 (stereo not drawn) | 2.5%
79 | CCN(CC)Cc1ccccc1Sc1ccccc1.O=C(O)/C=C\C(=O)O | -6.63%
80 | CCOC(=O)c1csc(NC(=O)Nc2cccc(Cl)c2)n1 | 15.1%
81 | Cn1c(SCc2nc3ccccc3s2)nnc1-c1ccc2c(c1)OCO2 | -10.7%
82 | CN(CC1COCCO1)C(=O)c1cc(COc2c(F)cccc2F)on1 (stereo not drawn) | 5.08%
83 | CCN(CCO)Cc1cc(=O)oc2cc3c(cc12)CCC3 | 21.6%
84 | COc1ccc(N2CC(C(=O)N3CCOCC3)CC2=O)cc1 (stereo not drawn) | 13.4%
85 | CCOC(=O)c1c(C)[nH]c(C(=O)COC(=O)c2cc(C)oc2C)c1C | -7.59%
86 | CC(=O)NN1C(=O)/C(=C\c2ccc(Cl)cc2)SC1=S | 19.1%
87 | N#Cc1ccc(OCC(=O)Nc2ccncc2)cc1 | 16.6%
88 | O=C(Nc1nnc(-c2ccco2)o1)c1ccc(S(=O)(=O)N2CCCC2)cc1 | 11.1%
89 | O=C(N1CCN(c2ncccn2)CC1)C12CC3CC(CC(C3)C1)C2 | 10.1%
90 | Cc1ccc(-c2nnc(SCC(N)=O)n2C)cc1 | 9.74%
